Out of some 46,000 compounds screened, about 60 (0.1%) were called active. Not shown: some 3% with an inconclusive outcome. Calls follow the shape of the dose curve; as a rule, active = well fitted inhibition curve with a large enough effect; inconclusive = small, poorly fitted or top-dose-only effect; inactive = no such curve, though single readings can be large or run the other way. Some of the results follow.

The test can be described thus: Primary qHTS assay for Inhibitors of ovarian cancer metastasis using an organotypic tumor microenvironment (TME) model. Also: nearly all actives have a fitted effect of over 65% in size.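 As to activity change, negative = inhibition: plate controls were DMSO wells for no effect and tomatine positive control wells for full effect.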 Particulars: SKOV3ip1-GFP adhesion/invasion on 3D omental model, fluorescence; series mostly up to 45.8 µM; activity change, negative = inhibition: at the top concentration. A digest of the protocol:
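qHTS, 4-pt dose (0.36-46 umol/L); SKOV3ip1-GFP, 1,200 cells/well, no FBS; primary omental fibroblast/mesothelial co-culture 48 h pre-grown; 2 h RT + 16 h 37 C; PBS wash, 4% PFA; GFP count 488/509 nm.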
Background: qHTS replaces the single test concentration by a dilution series.
Take `CCn1cc2c(n1)-c1c(oc(C(=O)Nc3cccc(C)c3C)c1C)CC2`: the call was inactive.
`Cc1ccc(CCNC(=O)CCCn2c(=O)c3ccccc3n(Cc3ccccc3C#N)c2=O)cc1`: the “activity change, negative = inhibition” value was inactive: -7.07%.
Take `Cc1ccc(Cl)cc1NC(=O)Cn1c(=O)n(Cc2ccccc2)c(=O)c2oc3ccccc3c21`: the “activity change, negative = inhibition” value is inactive: 1.51%.
Regarding `CCn1cc(S(=O)(=O)c2ccccc2)c(=O)c2cc(F)c(N3CCCC3)cc21`, the “activity change, negative = inhibition” value was inactive: 11.2%.
`Cc1cc(C)cc(NS(=O)(=O)c2ccc3[nH]cc(C(=O)NC4CCCCC4)c(=O)c3c2)c1`: the molecule was called inactive.
For the molecule `O=C1Cc2cc(CCN3CCN(c4nsc5ccccc45)CC3)c(Cl)cc2N1`, the “activity change, negative = inhibition” value was inactive: -1.19%.
With `CCOc1ccc(-c2cc(C(=O)NCc3ccccc3Cl)c3ccccc3n2)cc1`, the result was inactive.
On to `O=C(c1cc(-c2ccccc2O)on1)N1CCCCC1`, for which the “activity change, negative = inhibition” value is inactive: -11.9%.
Turning to `CCc1c(C)nc(SCc2nc(-c3ccccc3)no2)[nH]c1=O`, the result was inactive.
Take `COc1cc(OC)c(OC)cc1/C=C/c1nc2cc3ccccc3cc2c(=O)n1-c1ccc(F)c(Cl)c1`: the “activity change, negative = inhibition” value was inactive: -1.56%.
Still for that read-out and setting: under `Cc1cc2nc(-c3cccc(NC(=O)C(C)C)c3C)oc2cc1C` stands inactive: -2.1%; under `CCN[C@H]1C[C@H](C)S(=O)(=O)c2sc(S(N)(=O)=O)cc21`, inactive: 2.24%.
For the molecule `CCOc1ccc(C(=O)Nc2ccc3nn(-c4ccc(OC)c(Cl)c4)nc3c2)cc1`, the result was inactive.
For `CCN(CC)C(=O)c1sc2c(c1C)c(=O)n(CCc1ccccc1)c(=O)n2Cc1ccc(F)cc1Cl`, the “activity change, negative = inhibition” value is inactive: 13.5%.
On to `O=C(c1ccc2c(c1)N(Cc1ccccc1F)C(=O)c1ccccc1S2(=O)=O)N1CCN(c2ccccc2F)CC1`, for which the result was inactive.
As for `COc1ccccc1NC(=O)c1c(NC(=O)COc2ccccc2)sc2c1CCCCC2`, the “activity change, negative = inhibition” value was inactive: -2.53%.
Regarding `CNC(=O)C1CCC(Cn2c(=O)c3sccc3n(CC(=O)NCc3ccc(OC)cc3)c2=O)CC1` (stereo not drawn), the “activity change, negative = inhibition” value is inactive: -3%.
Still for that read-out and setting: for `O=C(Cn1c(=O)n(-c2cccc(Cl)c2)c(=O)c2sc3ccccc3c21)NC1CCCCC1` the value was inactive: -9.54%.
Regarding `COc1ccc2cc(-c3nc(Cl)c4c5c(sc4n3)CC(C)CC5)c(=O)oc2c1` (stereo not drawn), the result was inactive.
Take `Cc1ccc(OCC(=O)Nc2cccc(-c3nc4ccccc4o3)c2C)cc1C`: the “activity change, negative = inhibition” value was inactive: 9.54%.
On the same count and under the same terms, for `Clc1ccc(CN2CCC(CNc3ncnc4onc(-c5ccc(Cl)cc5)c34)CC2)cc1` the value was inactive: 18.8%.
As to `O=C(CSCc1ccc(F)cc1)N1CCN(c2ccc(Cl)cc2)CC1`, the molecule was classed as inactive.
The same measure, in the same setting: under `CCc1ccc(C2N=C(N)Nc3nc4ccccc4n32)cc1` (stereo not drawn) stands “inactive”.
Regarding `COC(=O)c1cccc(Nc2c(-c3ccc(SC)cc3)nc3nc[nH]n23)c1`, the “activity change, negative = inhibition” value was inactive: -9.48%.
Consider `Cc1cccc(N2CCN(c3ncnc4onc(C)c34)CC2)c1C`, for which the outcome was inactive.
Regarding `Cc1ccc(-n2ncc(C(=O)NCCc3ccsc3)c2C2CCN(C(=O)OC(C)(C)C)CC2)c(C)c1`, the “activity change, negative = inhibition” value is inactive: -8.91%.
In the case of `O=C(NCc1cccc(Cl)c1)c1cnc(N2CCCCC2)c2ccccc12`, the call was inactive.
In the case of `COc1ccc(CCNC(=O)Cn2c(=O)c3sccc3n(CC(=O)Nc3cccc(C(F)(F)F)c3)c2=O)cc1OC`, the molecule was called inactive.
In the case of `Cc1cccc(S(=O)(=O)c2cn(Cc3ccc(F)cc3)c3cc(N4CCCCC4)c(F)cc3c2=O)c1`, the “activity change, negative = inhibition” value is inactive: 2.66%.
Same read-out and setting: under `COc1ccc(Cl)cc1NC(=O)CN(c1cccc(C)c1C)S(C)(=O)=O` stands inactive: -1.06%.
For `O=C(CCCCCn1c(=O)[nH]c2ccccc2c1=O)NCCc1ccccc1`, the outcome was inactive.
As for `COC(=O)[C@@H]1[C@H]2C[C@@H]3c4[nH]c5ccccc5c4CCN3C[C@@H]2CC[C@@H]1O`, the “activity change, negative = inhibition” value was inactive: 5.41%.
On the same count and under the same terms, under `O=C(CSc1nc2c([nH]c3ccccc32)c(=O)n1-c1ccc(Cl)cc1)NCc1ccccc1` stands inactive: 9.92%.
Turning to `CCc1ccc(CNC(=O)CN2C(=O)CSc3ccc(S(=O)(=O)N4CCOCC4)cc32)cc1`, the molecule was classed as inactive.
As for `Cc1ccc2sc(N(CCCN(C)C)C(=O)c3ccco3)nc2c1C`, the result was inactive.
As to `CCn1c(=O)c(=O)n(CC)c2cc(N3CCCCC3)c(NC(=O)c3ccc(OC)c(OC)c3)cc21`, the “activity change, negative = inhibition” value is inactive: 2.9%.
Same read-out and setting: under `COc1cc(C(=O)Nc2sc3c(c2C(N)=O)CCC(C)C3)cc(OC)c1OC` (stereo not drawn) stands inactive: -7%.
For `COc1ccc(CCNC(=O)CSc2cc(=O)n(C)c3ccccc23)cc1OC`, the outcome was inactive.
As for `CCc1ccccc1NC(=O)c1cc(-c2ccc(OC)cc2)on1`, the “activity change, negative = inhibition” value was inactive: 9.37%.
Same read-out and setting: under `CN1CCN(C(CNC(=O)C(=O)Nc2ccccc2C#N)c2ccc3c(c2)OCO3)CC1` (stereo not drawn) stands inactive: 9.1%.
The same measure, in the same setting: for `CC1=C(C(=O)Nc2cc(Cl)ccc2C)C(c2ccccc2F)n2ncnc2N1` (stereo not drawn) the value was inactive: 9.92%.
The same measure, in the same setting: under `CCc1ccc(S(=O)(=O)NCc2cccn2Cc2cccc(C)c2)cc1` stands inactive: 0.566%.
Regarding `Cc1ccc(-n2nc(C(=O)N3CCCCC3)c(=O)n(C)c2=O)cc1`, the “activity change, negative = inhibition” value is inactive: 11.6%.
Same read-out and setting: for `CCCN(CCC)CCNC(=O)CS(=O)Cc1nc(-c2ccc(OC)c(OC)c2)oc1C` (stereo not drawn) the value was inactive: -2.23%; for `COC(=O)c1ccc(NC(=O)CC2C(=O)N(c3cccc(F)c3)C(=O)N2CC(C)C)cc1` (stereo not drawn), inactive: 12.9%; for `CCCNC(=O)C1CCC(Cn2c(=O)c3sccc3n(CC(=O)N(CC)CC)c2=O)CC1` (stereo not drawn), inactive: -13.1%.
For the molecule `COc1ccc(NC(=O)Cn2nnnc2-c2ccccc2F)c(C)c1`, the result was inactive.
As for `CNc1ccc(-c2nc(-c3ccccn3)no2)cc1[N+](=O)[O-]`, the “activity change, negative = inhibition” value was inactive: -15.7%.

For the origin of these results see PubChem BioAssay AID1963576 (National Center for Advancing Translational Sciences (NCATS), 2024).
